Assay results: the supplement of paper PMC12217912
The other results are listed elsewhere or left out. Sequences were assembled here from the parent chain. Inactive controls read about 0.05.

B1: TEV protease; numbered along this chain (parent)
chain: MGESLFKGPRDYNPISSSICHLTNESDGHTTSLYGIGFGPFIITNKHLFRRNNGTLVVQSLHGVFKVKDTTTLQQHLVDGRDMIIIRMPKDFPPFPQKLKFREPQREERICLVTTNFQTKSMSSMVSDTSCTFPSGDGIFWKHWIQTKDGQCGSPLVSTRDGFIVGIHSASNFTNTNNYFTSVPKNFMELLTNQEAQQWVSGWRLNADSVLWGGHKVFMVKPEEPFQPVKEATQL
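Also: Bxb1 expression induced with 0.2% (w/v) L-rhamnose at OD600 near 0.5, cultures sampled hourly, flipped fraction per protease–substrate barcode pair counted by paired-end Illumina sequencing.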

Variants of: B1
Experiment: raw area under fraction-flipped curve 0-4 h after induction (AUC4h, not background-subtracted), DNA-recorder readout of cleavage of the substrate (dimensionless); higher = more cleavage of the substrate by the protease variant
Conditions: temperature: 34 °C; time window: 0-4 h after rhamnose induction
Protocol: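 In vivo DNA recorder in E. coli TOP10(DE3) ΔrhaA at 34 °C. Each TEVp single-site mutant (parent TEVp 0) is paired with a single-site variant of the 7-mer TEVs (canonical ENLYFQ|S). The substrate sits between flexible linkers in a Bxb1-sfGFP-TEVs-SsrA fusion, so cleavage stabilises Bxb1 and speeds flipping of a recombination array, read by NGS. The value is the raw area under the fraction-flipped curve over 0-4 h after rhamnose induction (AUC4h), with ≥20 reads per time point. It is not background-subtracted; inactive controls average about 0.047.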
In the case of H215I, the “area with substrate ENLYFAS” value is reported as 0.0634.
With H215L the “area with substrate ENLYFAS” value was 0.0634, the “area with substrate ENLYFES” value was 0.0643 and the “area with substrate ENLYFFS” value was 0.0532. For the same variant, the “area with substrate ENLYFGS” value was 0.0634, the “area with substrate ENLYFIS” value was 0.0709 and the “area with substrate ENLYFKS” value was 0.0539. For the same variant, the “area with substrate ENLYFLS” value was 0.0696, the “area with substrate ENLYFMS” value was 0.0669 and the “area with substrate ENLYFPS” value was 0.0613. For the same variant, the “area with substrate ENLYFRS” value was 0.0421, the “area with substrate ENLYFSS” value was 0.0519 and the “area with substrate ENLYFTS” value was 0.0651. For the same variant, the “area with substrate ENLYFVS” value was 0.072, the “area with substrate ENLYFWS” value was 0.0894 and the “area with substrate ENLYFYS” value was 0.0489.
For F218I, the “area with substrate ENLYFAS” value was 0.0544, the “area with substrate ENLYFCS” value was 0.0506 and the “area with substrate ENLYFDS” value was 0.0578. For the same variant, the “area with substrate ENLYFES” value was 0.0624, the “area with substrate ENLYFGS” value was 0.0551 and the “area with substrate ENLYFIS” value was 0.0533. The “area with substrate ENLYFKS” value was 0.0551, the “area with substrate ENLYFLS” value was 0.0663 and the “area with substrate ENLYFMS” value was 0.0676. For the same variant, the “area with substrate ENLYFPS” value was 0.0569, the “area with substrate ENLYFSS” value was 0.0702 and the “area with substrate ENLYFWS” value was 0.0538.
For F218V, the “area with substrate ENLYFAS” value was 0.0599, the “area with substrate ENLYFDS” value was 0.0622 and the “area with substrate ENLYFHS” value was 0.0452. The “area with substrate ENLYFIS” value was 0.0755, the “area with substrate ENLYFKS” value was 0.0895 and the “area with substrate ENLYFLS” value was 0.0645. The “area with substrate ENLYFMS” value was 0.0402, the “area with substrate ENLYFNS” value was 0.0594 and the “area with substrate ENLYFPS” value was 0.0622. The “area with substrate ENLYFRS” value was 0.0653 and the “area with substrate ENLYFYS” value was 0.0517.
With V220S the “area with substrate ENLYFAS” value was 0.0414, the “area with substrate ENLYFCS” value was 0.0651 and the “area with substrate ENLYFES” value was 0.0559. The “area with substrate ENLYFIS” value was 0.0554, the “area with substrate ENLYFMS” value was 0.0612 and the “area with substrate ENLYFNS” value was 0.0698. For the same variant, the “area with substrate ENLYFPS” value was 0.0724 and the “area with substrate ENLYFSS” value was 0.0578.
With P222T the “area with substrate ENLYFAS” value was 0.0589, the “area with substrate ENLYFCS” value was 0.0569 and the “area with substrate ENLYFDS” value was 0.0616. For the same variant, the “area with substrate ENLYFGS” value was 0.0564, the “area with substrate ENLYFHS” value was 0.0563 and the “area with substrate ENLYFIS” value was 0.052. For the same variant, the “area with substrate ENLYFKS” value was 0.0594, the “area with substrate ENLYFLS” value was 0.0584 and the “area with substrate ENLYFMS” value was 0.0624. The “area with substrate ENLYFNS” value was 0.0677, the “area with substrate ENLYFPS” value was 0.061 and the “area with substrate ENLYFRS” value was 0.0549. The “area with substrate ENLYFSS” value was 0.0579, the “area with substrate ENLYFTS” value was 0.0683 and the “area with substrate ENLYFYS” value was 0.0691.
With E223D the “area with substrate ENLYFAS” value was 0.0619, the “area with substrate ENLYFES” value was 0.0756 and the “area with substrate ENLYFIS” value was 0.0486.
In the case of P228W, the “area with substrate ENLYFAS” value is reported as 0.039, the “area with substrate ENLYFIS” value is reported as 0.0572 and the “area with substrate ENLYFLS” value is reported as 0.0622. For the same variant, the “area with substrate ENLYFMS” value was 0.0682 and the “area with substrate ENLYFRS” value was 0.0516.
With E231I the “area with substrate ENLYFAS” value was 0.0522, the “area with substrate ENLYFCS” value was 0.0584 and the “area with substrate ENLYFES” value was 0.0714. For the same variant, the “area with substrate ENLYFFS” value was 0.0727, the “area with substrate ENLYFGS” value was 0.0468 and the “area with substrate ENLYFIS” value was 0.0568. The “area with substrate ENLYFKS” value was 0.0677, the “area with substrate ENLYFLS” value was 0.0677 and the “area with substrate ENLYFMS” value was 0.0613. For the same variant, the “area with substrate ENLYFNS” value was 0.0257, the “area with substrate ENLYFPS” value was 0.0634 and the “area with substrate ENLYFRS” value was 0.059. The “area with substrate ENLYFSS” value was 0.0577, the “area with substrate ENLYFTS” value was 0.0487 and the “area with substrate ENLYFVS” value was 0.0654. The “area with substrate ENLYFYS” value was 0.0536.
In the case of T233Y, the “area with substrate ENLYFAS” value is reported as 0.046, the “area with substrate ENLYFCS” value is reported as 0.0557 and the “area with substrate ENLYFDS” value is reported as 0.0498. For the same variant, the “area with substrate ENLYFES” value was 0.0761, the “area with substrate ENLYFFS” value was 0.0639 and the “area with substrate ENLYFKS” value was 0.0451. The “area with substrate ENLYFMS” value was 0.0622, the “area with substrate ENLYFPS” value was 0.0564 and the “area with substrate ENLYFRS” value was 0.0613. For the same variant, the “area with substrate ENLYFYS” value was 0.0517.
In the case of L235P, the “area with substrate ENLYFAS” value is reported as 0.0614, the “area with substrate ENLYFCS” value is reported as 0.0438 and the “area with substrate ENLYFFS” value is reported as 0.0598. For the same variant, the “area with substrate ENLYFHS” value was 0.067, the “area with substrate ENLYFIS” value was 0.0495 and the “area with substrate ENLYFMS” value was 0.0369. For the same variant, the “area with substrate ENLYFNS” value was 0.0306, the “area with substrate ENLYFPS” value was 0.0614 and the “area with substrate ENLYFRS” value was 0.067. For the same variant, the “area with substrate ENLYFYS” value was 0.0623.
With L235T the “area with substrate ENLYFAS” value was 0.0635, the “area with substrate ENLYFDS” value was 0.0495 and the “area with substrate ENLYFFS” value was 0.0661. The “area with substrate ENLYFIS” value was 0.0454, the “area with substrate ENLYFKS” value was 0.0702 and the “area with substrate ENLYFLS” value was 0.0548. For the same variant, the “area with substrate ENLYFNS” value was 0.0704, the “area with substrate ENLYFPS” value was 0.0464 and the “area with substrate ENLYFRS” value was 0.0521. The “area with substrate ENLYFSS” value was 0.0591, the “area with substrate ENLYFVS” value was 0.07 and the “area with substrate ENLYFYS” value was 0.0551.
In the case of E3A, the “area with substrate ENLYFCS” value is reported as 0.0754, the “area with substrate ENLYFES” value is reported as 0.0627 and the “area with substrate ENLYFFS” value is reported as 0.0676. The “area with substrate ENLYFHS” value was 0.07, the “area with substrate ENLYFIS” value was 0.0516 and the “area with substrate ENLYFNS” value was 0.0689. For the same variant, the “area with substrate ENLYFPS” value was 0.0611, the “area with substrate ENLYFSS” value was 0.0614 and the “area with substrate ENLYFTS” value was 0.0548. The “area with substrate ENLYFVS” value was 0.0363 and the “area with substrate ENLYFYS” value was 0.0572.
With E3D the “area with substrate ENLYFCS” value was 0.0452, the “area with substrate ENLYFES” value was 0.112 and the “area with substrate ENLYFHS” value was 0.0792. The “area with substrate ENLYFKS” value was 0.0546, the “area with substrate ENLYFMS” value was 0.0645 and the “area with substrate ENLYFNS” value was 0.0658. For the same variant, the “area with substrate ENLYFPS” value was 0.0372, the “area with substrate ENLYFVS” value was 0.0583 and the “area with substrate ENLYFYS” value was 0.0486.
For S4A, the “area with substrate ENLYFCS” value was 0.0684, the “area with substrate ENLYFDS” value was 0.0613 and the “area with substrate ENLYFFS” value was 0.066. The “area with substrate ENLYFGS” value was 0.0632, the “area with substrate ENLYFHS” value was 0.067 and the “area with substrate ENLYFIS” value was 0.0556. For the same variant, the “area with substrate ENLYFKS” value was 0.0707, the “area with substrate ENLYFMS” value was 0.0622 and the “area with substrate ENLYFRS” value was 0.0474. For the same variant, the “area with substrate ENLYFTS” value was 0.0547, the “area with substrate ENLYFVS” value was 0.0575 and the “area with substrate ENLYFWS” value was 0.0684. The “area with substrate ENLYFYS” value was 0.0578.
With F6T the “area with substrate ENLYFCS” value was 0.059, the “area with substrate ENLYFES” value was 0.0757 and the “area with substrate ENLYFGS” value was 0.0551. For the same variant, the “area with substrate ENLYFIS” value was 0.0667, the “area with substrate ENLYFMS” value was 0.0612 and the “area with substrate ENLYFPS” value was 0.0664. For the same variant, the “area with substrate ENLYFWS” value was 0.0802.
In the case of K7S, the “area with substrate ENLYFCS” value is reported as 0.0511, the “area with substrate ENLYFES” value is reported as 0.0656 and the “area with substrate ENLYFVS” value is reported as 0.0467.
